# Measurements reported in PMC4336329 (PLoS ONE, 2015).
# Among all 310,000 compounds or so, about 2,200 (0.71%) showed an effect of 50% or more. Effects have a minus sign here. The list shows a part of the results.
# Target: human ether-à-go-go-related gene (hERG) potassium channel (human, UniProt Q12809)
# Experiment: primary screen, population patch clamp on CHO cells stably expressing hERG
# human ether-à-go-go-related gene (hERG) potassium channel, sequence (Q12809 whole entry, looked up): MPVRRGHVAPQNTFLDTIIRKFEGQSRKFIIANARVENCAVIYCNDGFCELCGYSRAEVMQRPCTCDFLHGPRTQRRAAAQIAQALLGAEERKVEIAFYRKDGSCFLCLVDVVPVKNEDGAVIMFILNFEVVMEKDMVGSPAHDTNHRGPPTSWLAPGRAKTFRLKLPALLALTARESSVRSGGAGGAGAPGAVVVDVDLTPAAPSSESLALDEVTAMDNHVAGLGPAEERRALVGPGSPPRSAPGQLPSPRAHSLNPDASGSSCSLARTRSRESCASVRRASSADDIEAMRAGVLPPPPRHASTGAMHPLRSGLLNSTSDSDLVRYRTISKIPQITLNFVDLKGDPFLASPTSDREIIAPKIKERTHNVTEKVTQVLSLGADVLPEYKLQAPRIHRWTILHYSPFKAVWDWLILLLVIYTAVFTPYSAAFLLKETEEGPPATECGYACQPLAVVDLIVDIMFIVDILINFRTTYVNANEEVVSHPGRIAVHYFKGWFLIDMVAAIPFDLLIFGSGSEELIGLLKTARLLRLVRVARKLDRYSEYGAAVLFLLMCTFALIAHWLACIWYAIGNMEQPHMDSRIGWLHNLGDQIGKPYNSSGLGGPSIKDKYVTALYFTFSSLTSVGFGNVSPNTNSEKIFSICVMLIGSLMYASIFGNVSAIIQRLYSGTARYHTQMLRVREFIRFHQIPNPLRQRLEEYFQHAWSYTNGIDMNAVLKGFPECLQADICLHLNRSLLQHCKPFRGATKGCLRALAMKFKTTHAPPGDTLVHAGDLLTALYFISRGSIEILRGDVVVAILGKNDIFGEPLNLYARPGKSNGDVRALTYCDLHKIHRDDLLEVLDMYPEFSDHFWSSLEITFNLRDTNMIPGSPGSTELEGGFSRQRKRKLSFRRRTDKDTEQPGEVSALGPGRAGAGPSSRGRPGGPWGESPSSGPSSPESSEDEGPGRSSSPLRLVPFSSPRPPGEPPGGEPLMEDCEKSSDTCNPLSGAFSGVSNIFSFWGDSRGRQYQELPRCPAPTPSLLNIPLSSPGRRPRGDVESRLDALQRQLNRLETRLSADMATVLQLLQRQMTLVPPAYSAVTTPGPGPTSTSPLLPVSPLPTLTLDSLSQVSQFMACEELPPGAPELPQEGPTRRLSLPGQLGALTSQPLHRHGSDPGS
row,Compound,"hERG current change (%, negative = inhibition) at 1uM [%]"
1,CCN(CC)Cc1c(O)ccc2c(C)c(CC(=O)OC)c(=O)oc12.Cl,17.9
2,CC(C)C(=O)N1CCN(c2nc3ccc(Cl)cc3s2)CC1,-2.05
3,COc1ccc(-c2cc(C(F)F)n3ncc(C(=O)Nc4c(C)n(C)n(-c5ccccc5)c4=O)c3n2)cc1,16.8
4,COc1cc2c(cc1OC)C(COc1ccccc1OC)N(C(=O)c1ccco1)CC2 (centres unmarked),11.5
5,COc1ccc(OC)c(Nc2cc3ccccc3c(=O)[nH]2)c1,17.5
6,Cc1ccc2[nH]c(=O)c(CN(Cc3cccnc3)Cc3nnnn3CC3CCCO3)cc2c1 (centres unmarked),10.7
7,COc1ccc(C=C(c2ccc(OC)cc2)c2ccc(OC)cc2)cc1,10.4
8,Cc1c(CCC(=O)N[C@@H](CC(C)C)C(=O)O)c(=O)oc2cc3oc4c(c3cc12)CCCC4,8.1
9,CC(C)Nc1nc(NC(C)(C)C)nc(Oc2ccc(=O)n(-c3ccccc3)n2)n1,9.82
10,CCOC(=O)COn1c(=O)c(-c2cccs2)[n+]([O-])c2ccccc21,7.22
11,CCn1ccnc1CN1CCCC(C(=O)c2cc(Cl)ccc2OC)C1 (centres unmarked),-30.6
12,Cc1ccc(S(=O)(=O)NC(=NCc2ccccc2)c2ccc(F)cc2)cc1,4.58
13,O=C(CN1C(=O)COc2ccccc21)N1CCc2ccccc21,12.5
14,COc1ccc(-c2nnc(SCc3c(C)noc3C)o2)cc1,7.08
15,CCC(C)[C@H](NC(=O)N1CCCCCC1)C(=O)O (some centres unmarked),15.8
16,CC(C)(C)OC(=O)N1CCC[C@H]1C(=O)N/N=C/c1ccc2nccnc2c1,14.8
17,Br.CCCN(CCC)C1CCc2ccc(O)cc2C1 (centres unmarked),-48.9
18,O=C1Nc2ccccc2OCc2c1cccc2[N+](=O)[O-],-2.77
19,CCOc1cc(C2C(C(=O)N3CCCCC3)=C(C)NC3=C2C(=O)CCC3)cc(Br)c1O (centres unmarked),2.89
20,Cc1ccc(S(=O)(=O)NCC(c2ccco2)S(=O)(=O)c2ccccc2)cc1 (centres unmarked),-2.81
21,COc1ccc(-c2ccc(-c3noc(C)n3)c(OC)n2)cc1,3.17
22,CC(C)NC(=O)COc1ccc(S(=O)(=O)N(C)Cc2ccccc2)cc1,6.57
23,Cc1ccc(Cn2c(SCC(=O)NCc3ccco3)nc3ccsc3c2=O)cc1,-14.5

row,Compound,"hERG current change (%, negative = inhibition) at 1uM [%]"
1,CC1=NNC(=O)C1CCC(=O)N/N=C/c1ccco1 (centres unmarked),1.35
2,c1ccc(-c2nnc(-c3ccccn3)nn2)nc1,-0.974
3,CC(NC(=O)c1ccco1)C(=O)N1CCc2ccccc2C1 (centres unmarked),14.7
4,COS(=O)(=O)[O-].Cn1c(-c2ccccc2)c[n+]2c1-c1ccccc1C2,6.69
5,CCOC(=O)c1cc(-c2ccccc2C)n(CC2CC(c3cccc([N+](=O)[O-])c3)=NO2)n1 (centres unmarked),11.6
6,COC(=O)c1ccc(/C=C2/SC(=S)N(CCC(=O)NCCCN3CCOCC3)C2=O)cc1,5.78
7,COc1cc([N+](=O)[O-])ccc1N1C(=O)C2C3C=CC(C4CC34)C2C1=O (centres unmarked),2.95
8,CCCOc1ccc(/C=N/Nc2ccccn2)cc1OC,14.2
9,CSc1nc(N)c2c(C)c(C)sc2n1,10.8
10,Cc1[nH]c2c(C)cccc2c1CCNC(=O)C1CCCCC1C(=O)OCC(F)(F)F (centres unmarked),13.5
11,CCOc1ccc2[nH]cc(C(=O)NCc3ccccc3)c(=O)c2c1,14.9
12,CC(C)CC(=O)NNC(=O)C(C)C,13.5
13,CCCCn1c(O)c(C=NC2CC3CCC2(C)C3(C)C)c(=O)[nH]c1=O (centres unmarked),4.59
14,CCn1cc([N+](=O)[O-])c(C(=O)NCc2ccc3c(c2)OCO3)n1,11.6
15,Cc1ccc(C2CC(c3ccccc3)=NN2c2ccccc2)o1 (centres unmarked),11
16,Cc1ccccc1NCN1C(=O)C2C3C=CC(C3)C2C1=O (centres unmarked),8.59
17,CCOc1ccc2nc(NC(=S)NCc3ccccc3)sc2c1,2.47
18,CCC(=O)Nc1cccc2ccccc12,4.62
19,Cc1cc(C)nc(SC2CCCCC2O)n1 (centres unmarked),16.3
20,CCOCCCNC(=O)CN1C(=O)CSc2ccc(S(=O)(=O)N3CCOCC3)cc21,18.9
21,CN(Cc1nc(-c2cccnc2)no1)S(=O)(=O)c1ccc(Br)cc1,-5.83
22,CCOC(=O)N1CCN(C(=O)C2CC(=O)N(Cc3ccc(OC)cc3)C2)CC1 (centres unmarked),6.27
23,COc1ccc(NC(=O)C(=O)N/N=C(\C)CC(=O)Nc2ccccn2)c(OC)c1,12.3

row,Compound,"hERG current change (%, negative = inhibition) at 1uM [%]"
1,COCC1CCCCN1C(=O)c1ccc2nc(Cc3ccc(OC)c(OC)c3)oc2c1 (centres unmarked),12.2
2,COc1cc(/C=C(\C#N)c2nc3c(s2)CCCC3)ccc1O,9.31
3,Cc1cccc(C(C)C)c1NC(=O)COC(=O)C1CC(=O)N(Cc2ccccc2)C1 (centres unmarked),6.76
4,Cc1cccc(-n2c(O)c(C=NC3CCS(=O)(=O)C3)c3ccccc3c2=O)c1C (centres unmarked),6.24
5,COc1ccc(NC(=S)N(CCCN2CCOCC2)Cc2cn(C)c3ccccc23)cc1,6.9
6,CCOC(=O)c1c(N2C(=O)C3C4C=CC(O4)C3C2=O)sc2c1CCCC2 (centres unmarked),3.99
7,COc1ccc(CCC(=O)Nc2cccc(S(=O)(=O)N3CCCC3)c2)cc1OC,4.35
8,CC(=O)Nc1cccc(-n2c(=O)n(Cc3ccccc3)c(=O)c3[nH]cnc32)c1,11.3
9,CSCCC(NC(=O)CCNC(=O)c1ccccc1Cl)c1nc2ccccc2[nH]1 (centres unmarked),5.12
10,CCN1CCN(C(=O)Cn2ncc3ccsc3c2=O)CC1,9.83
11,CCc1ccc(N2C(=O)C(Cl)=C(N3CCCCCC3)C2=O)cc1,11.5
12,Cc1ccccc1OCc1nc2ccccc2c(=O)n1NC(=O)c1ccco1,16.5
13,COc1ccc2[nH]cc(C(=O)CN3CCN(C4CCCCC4)CC3)c2c1,-14.5
14,COc1c(C(=O)NC(=S)Nc2nnn(C)n2)cc2ccccc2c1Br,-8.82
15,CN(C(=O)C1CCN(S(=O)(=O)c2cccs2)CC1)c1ccccc1,3.06
16,CC(=O)Nc1ccc(S(=O)(=O)N2CCC(c3nc4c(nnn4Cc4ccccc4Cl)c(=O)[nH]3)CC2)cc1,5.82
17,CC(=O)c1ccc(NC(=S)NC(C)c2ccc(Cl)cc2Cl)cc1 (centres unmarked),13.2
18,CCCCN(C)S(=O)(=O)c1ccc(C(=O)Nc2nnc(C3=COCCO3)o2)cc1,6.23
19,CN1CCN(c2nc(-c3ccc(Cl)cc3)cc(=O)[nH]2)CC1,6.77
20,O=C(NCc1ccccn1)c1cccc(NS(=O)(=O)c2ccccc2F)c1,10.9
21,COc1ccccc1C(=O)NNC(=S)NC(=O)c1ccco1,16.4
22,NC(=O)COc1ccc2cc(-c3ccccc3)c(=O)oc2c1,6.76
23,O=P(c1ccccc1)(c1ccccc1)C1CCCO1 (centres unmarked),1.97

row,Compound,"hERG current change (%, negative = inhibition) at 1uM [%]"
1,Cc1ccc(NC(=O)CS(=O)CC(=O)N(CC(=O)NC(C)(C)C)c2cccc(C)c2C)cc1 (centres unmarked),7.99
2,Cc1cc(C)cc(-n2c(=O)c3ccccc3n(CC(=O)NCC3CCCO3)c2=O)c1 (centres unmarked),15.3
3,Cc1cc(=O)c2cc(Br)ccc2n1CC(=O)NCc1ccccc1,12.7
4,CSc1nc(N)nc(SCC(=O)OC(C)C)c1C#N,13.3
5,COC(=O)c1cc(-c2cccc(OC)c2)c2c(=O)[nH]c(=O)n(C)c2n1,10.7
6,CCc1ccc(N2CC(C(=O)NCc3ccco3)CC2=O)cc1 (centres unmarked),4.59
7,CCn1c(SCC(=O)Nc2ccc3c(c2)c2ccccc2n3CC)nnc1-c1cnccn1,5.44
8,CC(C)c1ccc(NC2CCCN(C(=O)c3ccc(N4CCOCC4)cc3)C2)cc1 (centres unmarked),4.17
9,CCOc1ccc(Br)cc1-c1noc(-c2cccs2)n1,7.74
10,Cc1cccc(-n2ncc3c(NCc4cccs4)ncnc32)c1,10.6
11,Cn1c(CCNC(=O)c2ccc(Cl)c(Cl)c2)nnc1SCc1ccc(Cl)c(Cl)c1,7.59
12,Cc1ccccc1NC(=O)c1ccc(N/N=C/c2ccccc2O)c([N+](=O)[O-])c1,9.03
13,COc1cc(NC(=O)c2cccnc2SC)cc(OC)c1,11.2
14,COc1cc2c(C(=O)O)c(C)n(-c3ccccc3)c2c2ccccc12,8.08
15,Cc1cc(N)nc2nc(C(F)(F)F)nn12,6.71
16,CN1CCN(NC(=O)C2CC2)CC1,7.62
17,Nc1c([N+](=O)[O-])cc(F)c(N2CCNCC2)c1Br,17.4
18,COc1ccc(-n2c(NCCN(C)C)nc3sc4c(c3c2=O)CCCCC4)cc1,-69.4
19,O=C(CSc1nnc(-c2cccnc2)n1-c1ccccc1)Nc1ccccn1,-3.68
20,COc1cccc(CN(C)C(=O)CN2C(=O)NC3(CCCc4ccccc43)C2=O)c1 (centres unmarked),5.26
